From the antibiotic and cytotoxicity screens of Wong et al. (2023)
The other results are listed elsewhere or left out.

The compounds below were run on S. aureus RN4220 (assay: growth inhibition call (relative growth <= 0.2)). Settings: 50 µM.
With C[C@@H]1CN([C@H](C)CO)C(=O)c2cc(NC(=O)Nc3ccc4c(c3)OCO4)ccc2O[C@@H](C)CCCCO[C@@H]1CN(C)C(=O)Cc1ccccc1 the growth inhibition call was “inactive”. With C[C@@H]1CN([C@@H](C)CO)S(=O)(=O)c2ccc(C#C[C@@H](C)O)cc2O[C@H]1CN(C)C(=O)c1ccncc1 the growth inhibition call was “inactive”. In the case of Cc1noc(C)c1S(=O)(=O)Nc1cccc2c1O[C@H](CN(C)Cc1ccc(Oc3ccccc3)cc1)[C@H](C)CN([C@H](C)CO)C2=O, the growth inhibition call is reported as “inactive”. For C[C@H]1CCCCO[C@H](CN(C)C(=O)Nc2ccccc2)[C@@H](C)CN([C@@H](C)CO)C(=O)c2cc(NS(=O)(=O)c3ccc(Cl)cc3)ccc2O1, the growth inhibition call was “inactive”. For CCOC(=O)c1ncn2c1C(=O)OC2(C)C, the growth inhibition call was “inactive”. For C[C@@H]1CN([C@H](C)CO)C(=O)CCCn2cc(nn2)CO[C@H]1CN(C)C(=O)Nc1ccc(C(F)(F)F)cc1, the growth inhibition call was “active”. For C/C=C/c1ccc2c(c1)O[C@@H](CN(C)S(=O)(=O)c1ccc(F)cc1)[C@@H](C)CN([C@H](C)CO)S2(=O)=O, the growth inhibition call was “inactive”. CCCN1C[C@@H](C)[C@@H](OC)CN(C)C(=O)c2cc(NS(=O)(=O)c3cn(C)cn3)ccc2OC[C@H]1C was tested, and the growth inhibition call was “inactive”. For C[C@@H]1CN([C@H](C)CO)C(=O)c2cc(NC(=O)C3CCCCC3)ccc2O[C@@H](C)CCCCO[C@H]1CN(C)C(=O)CCC(F)(F)F, the growth inhibition call was “inactive”. C[C@H]1CCCCO[C@H](CN(C)Cc2ccncc2)[C@@H](C)CN([C@@H](C)CO)C(=O)c2cc(NC(=O)Nc3ccc4c(c3)OCO4)ccc2O1 was tested, and the growth inhibition call was “inactive”.
